In PubChem BioAssay AID488969 (Vanderbilt High Throughput Screening Facility, 2010):
Whole data set: some 110,000 compounds, median “z-score” near -0.1, cut for the highest 2% near 2. This is one part of the list.

The compounds below were run against Metabotropic glutamate receptor 8 (Rattus norvegicus) (UniProt P70579) (assay: rat mGluR8 modulators via GIRK flux, primary screen, cell-based, thallium flux, HTS (AID 488969)). Details: HEK293 rat mGluR8, GIRK (G protein-gated inwardly rectifying potassium channel) thallium flux, FluoZin2; at 10 µM; stronger effect = higher value; submaximal glutamate (EC20) added with thallium.
Sequence of UniProt P70579 (P70579 whole entry, looked up): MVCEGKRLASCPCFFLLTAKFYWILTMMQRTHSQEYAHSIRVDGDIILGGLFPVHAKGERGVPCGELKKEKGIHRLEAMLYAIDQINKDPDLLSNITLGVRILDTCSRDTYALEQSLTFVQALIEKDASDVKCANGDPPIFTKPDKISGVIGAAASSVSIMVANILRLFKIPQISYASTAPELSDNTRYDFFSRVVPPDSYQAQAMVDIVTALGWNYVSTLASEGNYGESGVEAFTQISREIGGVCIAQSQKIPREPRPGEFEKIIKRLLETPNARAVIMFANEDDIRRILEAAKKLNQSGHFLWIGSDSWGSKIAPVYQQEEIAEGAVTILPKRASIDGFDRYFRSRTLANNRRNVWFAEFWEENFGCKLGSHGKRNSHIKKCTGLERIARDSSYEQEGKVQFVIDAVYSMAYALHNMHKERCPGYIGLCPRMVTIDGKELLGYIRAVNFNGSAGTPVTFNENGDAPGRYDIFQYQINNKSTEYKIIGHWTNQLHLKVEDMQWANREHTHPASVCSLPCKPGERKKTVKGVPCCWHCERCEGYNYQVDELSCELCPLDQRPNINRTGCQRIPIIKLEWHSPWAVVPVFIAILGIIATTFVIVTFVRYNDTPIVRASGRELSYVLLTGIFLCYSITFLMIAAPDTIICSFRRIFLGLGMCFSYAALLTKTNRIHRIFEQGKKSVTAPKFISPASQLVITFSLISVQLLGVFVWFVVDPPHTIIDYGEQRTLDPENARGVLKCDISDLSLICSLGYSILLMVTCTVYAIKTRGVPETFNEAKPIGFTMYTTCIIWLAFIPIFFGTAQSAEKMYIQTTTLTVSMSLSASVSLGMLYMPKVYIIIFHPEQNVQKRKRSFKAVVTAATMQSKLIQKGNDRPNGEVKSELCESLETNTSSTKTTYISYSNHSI

SMILES	z-score
CCCCOc1ccccc1N	0.576
COc1ccc(N=Nc2cnc(C)nc2-c2ccccc2)cc1	0.262
CCOc1ccccc1NC(=O)NC1(C(=O)N2CCN3CCCC3C2)CCCCC1 (configuration not stated)	-0.551
COC(=O)C1=NN(c2ccccc2)C2(S1)S/C(=C\c1ccccc1)C(=O)N2c1ccccc1 (configuration not stated)	0.473
Cc1nc2ccccc2n1CCc1nc2c3ccccc3nc(SCC#N)n2n1	0.407
COc1ccccc1OCc1nc(-c2ccc([N+](=O)[O-])cc2)no1	-0.17
CCOC(=O)C(NC(=O)c1ccccc1Cl)(Nc1sc2c(c1C(N)=O)CCC2)C(F)(F)F (configuration not stated)	-0.416
O=C1CC(N2CCOCC2)C(=O)N1c1ccccc1Cl (configuration not stated)	-0.124
O=C(CCSc1ccccc1)N1CCN(C(=O)c2ccco2)CC1	-0.515
O=c1/c(=C/c2ccco2)sc2n1CN(c1cccc(Br)c1)CN=2	-1.12
Cc1cc(NC2C3CC4CC(C3)CC2C4)n2ncnc2n1 (configuration not stated)	-0.0268
CNC(=O)C1CC(=O)N(CCc2ccc(OC)cc2)C(=Nc2ccc(OC)cc2)S1 (configuration not stated)	0.0547
Cn1c(=O)n(C)c2cc(C(=O)c3ccccc3)ccc21	-0.216
O=C(c1cccc(F)c1)N1CCC(N2CCOCC2)CC1	-0.231
CCOC(=O)c1c(C)[nH]c(C)c1C(=O)COC(=O)c1ccc(S(=O)(=O)N(CC)CC)cc1	-0.297
Cc1ccc(C(=O)Nc2cccc(C(=O)N3CCOCC3)c2)cc1	-0.208
N#C/C(=C\c1cn(CCOc2ccccc2F)c2ccccc12)C(=O)NCc1cccs1	-0.0588
N#Cc1cc(-c2cccc(Cl)c2)c[nH]c1=O	-0.201
CSCCC1NC2(C(=O)Nc3ccc(Cl)cc32)[C@@H]2C(=O)N(C3CCCC3)C(=O)[C@H]12 (some centres not stated)	-0.242
CSc1nnc(NC(=O)c2ccc(C)c(S(=O)(=O)N3CCOCC3)c2)s1	0.184
Cn1c(=O)c2c(nc(Oc3ccc4c(c3)OCO4)n2Cc2ccc(F)cc2)n(C)c1=O	-0.184
O=P(Cc1nnco1)(c1ccccc1)c1ccccc1	-0.133
C=CCSc1nc(Cc2ccc(Cl)cc2)nc2ccccc12	-0.333
CCOc1cc(C2CC(=O)N3CN(C4CCCCC4)CSC3=C2C#N)ccc1O (configuration not stated)	-0.948

SMILES	z-score
CCOC(=O)C1CCN(c2c(N3CCN(Cc4ccccc4)CC3)c(=O)c2=O)CC1	1.94
COc1c(C)cc(Br)cc1C(=O)Nc1ccc(C)cc1[N+](=O)[O-]	0.0365
COC(=O)c1ccc2c(=O)n(CCN3CCOCC3)c(=S)[nH]c2c1	0.346
O=C(N/N=C/c1sc2ccccc2c1O)c1ccccc1	1.46
CC(C)CN1C(=O)c2ccccc2C1(O)Cc1ccccc1 (configuration not stated)	-0.306
CC(C)(C)NC(=O)COC(=O)c1cc(F)c(F)cc1Cl	-0.194
COc1ccc(N(C(=O)COc2cccc(C)c2)S(=O)(=O)c2ccc(C)cc2)cc1	-0.232
O=C(/C=C(\O)c1ccc(Cl)cc1)C(=O)NNC(=O)C(O)(c1ccccc1)c1ccccc1	-0.125
COC(=O)N/N=C/c1ccc(-c2cccc(Cl)c2)o1	-0.218
C/C(O)=C\c1nc(=O)c2c(C)cc(C)nc2n1-c1ccccc1	-0.248
O=C(CSc1nnc(-c2ccccc2F)o1)OCc1ccccc1	-1.2
CCCSc1nc2c(cnn2-c2ccc(Cl)cc2)c(=O)[nH]1	0.938
Cc1ccc(NC(=O)C(Nc2cccc(C)c2)c2ccccc2)cc1 (configuration not stated)	-0.102
Cc1cc(NC(=O)/C(C#N)=C/c2ccc(-c3cccc(C(F)(F)F)c3)o2)n(-c2ccccc2)n1	-0.705
CCOc1ccc2c(c1)nc(SCC(=O)c1ccc(Br)s1)n2C	-0.0596
Cc1cc(NC(=O)Cn2nnc(-c3ccccc3N)n2)no1	0.0511
Cc1sc2ncn(-n3c(C)ccc3C)c(=O)c2c1C	0.559
Cc1ccc(C2CC(c3cccs3)=NN2C(=O)c2ccc(Br)o2)cc1 (configuration not stated)	-0.823
CCOC(=O)c1c(NC(=O)CSc2nnc3c(Cl)cc(Cl)cn23)sc2c1CCC2	-0.585
CCN(CC)C(=O)C(Sc1ccccc1)c1ccccc1 (configuration not stated)	0.926
NC(=O)Cc1ccc2sc(-c3ccccc3)nc2c1	-0.155
Brc1ccccc1-c1nnc(COc2ncnc3c2cnn3-c2ccccc2)o1	-1.21
COC(=O)C1=C(CSc2nc3c(cc2C#N)CN(C)CC3)OC(N)=C(C#N)C1c1ccccc1F (configuration not stated)	-0.183
O=C(Nc1cccc(O)c1)c1cnn2cccnc12	-0.0897

SMILES	z-score
CSCC[C@@H](C(=O)O)N1Cc2ccccc2C1=O	0.187
COc1ccc(Br)cc1CN1CCCC(C(=O)N2CCCCCC2)C1 (configuration not stated)	0.248
CCOc1ccc(-c2cc(C(=O)NN)[nH]n2)cc1	0.556
COc1ccc(S(=O)(=O)N(CC(=O)O)c2ccccc2)cc1	0.419
CC(=O)Nc1ccc(NC(=O)c2ccc(COc3ccc4c(C)cc(=O)oc4c3)cc2)cc1	-0.0603
Cc1c(N(C(=O)c2cc(=O)[nH]c3ccccc23)C(C)C)c(=O)n(-c2ccccc2)n1C	0.0816
COc1ccc(/C=C/C(=O)OCC(=O)NCc2cccs2)cc1OC	1.26
COC1(c2cc(-c3ccccc3)nc(N)n2)CCCCC1	0.701
O=C(CSc1nnc(CNc2ccc(F)cc2)o1)OC1CCCCC1	-2.6
Cc1cccc(C)c1NC(=O)C(=O)NCCOc1ccc(Cl)cc1	-0.267
CC1CCCC(NC(=O)Cc2ccc(Br)cc2)C1C (configuration not stated)	-0.139
c1ccc2c(-c3nc4ncccc4o3)cccc2c1	-0.189
Cn1c(Cn2nnc3ccccc32)nnc1SCC(=O)Nc1nccs1	-0.341
Cn1nnnc1SCc1cn2cccnc2n1	0.0961
COc1cc(/C=C/c2nnc3c4ccccc4ncn23)cc(OC)c1OC	-0.245
COc1ccc(CCC(=O)NCc2cn3ccsc3n2)cc1	0.0209
CCOC(=O)N1CCC(N2CCN(c3cc(C)ccc3C)CC2)CC1	-0.479
O=C(O)c1cc(N/N=C/c2ccc(N3CCOCC3)s2)ccc1Cl	-0.13
Cc1ccc(NC(=O)c2noc3c2CCc2ccccc2-3)cc1	0.349
COc1ccccc1CNc1ccc(C(=O)O)cc1	-0.0956
COc1cccc(C2C(C#N)=C(N)Oc3c2oc(CO)cc3=O)c1OC (configuration not stated)	-0.484
C=CCn1c(N)cc(=O)nc1SCC(=O)Nc1ccccc1	1.06
CCOC(=O)N1CCN(C2CC(=O)N(c3ccc(C)cc3)C2=O)CC1 (configuration not stated)	-0.18
CCOc1ccc(NC(=S)NCCCN2CCN(C3CCCCC3)CC2)cc1	0.0645
